In all, about 33,000 sequences were measured (“E-score (-0.5 to 0.5)”: median about -0.013, highest 2% from about 0.3 on). The list shows a part of the results.
Biological target: T1, Msn1 (UniProt P22148)
T1 sequence: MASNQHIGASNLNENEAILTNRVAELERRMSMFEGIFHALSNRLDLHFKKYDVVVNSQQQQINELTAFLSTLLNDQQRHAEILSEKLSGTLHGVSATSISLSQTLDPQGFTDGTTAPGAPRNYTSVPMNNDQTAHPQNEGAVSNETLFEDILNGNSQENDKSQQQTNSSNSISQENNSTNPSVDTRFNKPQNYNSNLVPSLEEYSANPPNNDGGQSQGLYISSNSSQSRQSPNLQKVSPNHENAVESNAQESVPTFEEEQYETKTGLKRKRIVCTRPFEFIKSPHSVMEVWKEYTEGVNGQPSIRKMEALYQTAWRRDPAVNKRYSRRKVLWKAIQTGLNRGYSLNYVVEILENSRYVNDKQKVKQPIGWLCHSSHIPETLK
Experiment: PBM E-score (8-mer binding enrichment) (E-score (-0.5 to 0.5)); higher = stronger / more preferred TF binding; most listed sequences are background and not binding sites
Details: protein concentration: 200 nM; construct: GST-full length
Description: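 Universal 'all 10-mer' protein binding microarrays (Agilent AMADID 015681) probed with GST-tagged S. cerevisiae TFs (full-length or DBD) made by in vitro transcription/translation (PURExpress), about 100-200 nM. Bound TF was detected with fluorescent anti-GST. Each ungapped 8-mer (which stands for itself and its reverse complement) is scored by the PBM enrichment score (E-score), a modified Wilcoxon-Mann-Whitney statistic from -0.5 to +0.5, computed with the Universal PBM Analysis Suite. Scale: above 0.35 generally sequence-specific binding.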

Sequence	PBM E-score
ATGTCGCA	0.38
CGGAACAC	0.171
ATACGCGC	-0.0824
AGTCGTTG	-0.0976
CAGAGGGA	-0.175
AAGAAGAA	0.0585
GCGATATA	-0.0439
ATACTTAC	0.00959
GAATCAAA	0.112
CGATGCAG	-0.162
ACTTCCTG	-0.0301
TAATGCCA	-0.0104
GCCTCAAC	-0.137
ATAAGGGG	-0.179
ACTTATCA	0.0602
AGTTGTCA	0.295
TAGACACA	0.163
TCTATCCA	0.0076
ACCCCGAC	-0.166
CGGGCTAA	-0.144
ACTTACCA	0.0149
CCTTGGGA	0.137
AGTCGAGG	-0.0749
TAATAGAA	0.115
AGGGTCAG	-0.2

Sequence	PBM E-score
AGACAGAC	0.279
CTCAACTA	0.0111
GTAGACTA	-0.241
ATATAGAA	0.12
GAACGAAC	-0.0579
AAAGTCCA	0.378
AATCCCTA	-0.0113
ACTATCCT	-0.0439
AGGGCTAG	-0.0949
AGCCTGGA	-0.247
CACAGTTC	0.00142
CACTTTCG	0.19
CATAGCGA	-0.0154
CGTCACCC	-0.163
AGGTGGGG	-0.147
GTCCCTGA	0.187
AAAATGGC	0.185
GAGATGGC	0.0672
GTCCAGAA	0.195
CCTTATGC	-0.0713
GAGCTATC	-0.159
ATGACTGG	-0.114
CCGTCCCG	-0.137
GCGGCGGA	0.0803
CCGGCAAC	-0.107

Sequence	PBM E-score
AGGGACGA	0.261
CAAGTAGA	-0.00656
TGCATTAA	0.0944
TCTTACCA	-0.111
CTAGGAAA	-0.145
CCACTAAC	-0.00382
TGCATGAA	0.011
CACCGTCG	-0.196
ATTTTGAA	0.126
GACTCAAC	0.0406
AGCAGATA	-0.101
CTTGCATA	-0.0469
GATACAAC	0.212
ATTTACGG	0.199
AAAGAGGT	-0.0054
ACCACTAT	-0.0739
ACCCAGCG	-0.291
AAGGGATT	-0.169
ACTGAGGA	-0.103
ATTTAGCC	0.107
CCATTTAC	0.0112
ATGATGAA	0.0742
CACATCCC	-0.14
GGCGATAA	-0.0633
AGGCCGAA	0.0167

Sequence	PBM E-score
GACATTAC	0.442
GACGAGGA	0.0929
ACAAGGTG	0.118
CTCTGGTA	0.114
AGCCGTGG	-0.268
AGATCGTC	-0.0524
ACCAACTG	-0.164
TATCGCGA	0.0816
CATAGTGG	-0.235
AGAAGCAG	-0.0206
CCCGAATA	0.055
AAGTAGAC	-0.0005
AAATTATT	0.249
AACCTGAA	-0.226
CATGGCAA	-0.02
TGCTGTAA	0.0524
TTCAACAA	0.074
CCAACTAG	0.00517
GCCGAACA	-0.00806
GGGCTTGA	-0.135
CCAATTGC	-0.189
ACACAGGG	0.02
GGGGATCA	-0.32
ACTTCGGG	0.0559
CAAAGCAC	-0.0075

Sequence	PBM E-score
CTGTCTTC	-0.083
AAAGTCCC	0.344
TAGCGGAA	-0.136
ACAGCTAG	-0.0767
ATCCACTG	0.0323
ACCTTGCT	-0.0572
ATATGGAT	0.0668
CGGCACGC	-0.127
TGCCAAAA	0.135
AAAGTTCA	-0.0151
ACTTTACG	0.0667
GTATTAAC	0.101
CGTGGGAA	-0.0248
GATAGAGC	0.0176
ATGATACC	0.139
AACGCTGC	-0.166
CAAATGTG	0.229
AGGGAGAT	-0.206
AAGTGAAC	0.102
GTGCTCCA	-0.183
ACAAAAGC	0.364
GCACACAA	0.117
AAGTGTCA	-0.00431
GCTCGTAA	-0.154
GCCACTAA	-0.1

Sequence	PBM E-score
ACTCGGCA	0.0864
AATCCAAG	0.0229
TCCGGACA	0.453
TACCTATA	-0.0921
AAGTAAAA	-0.016
CGCCGCCA	-0.18
CCGTACCC	-0.206
AAAACCTA	0.13
AAGCCGAA	0.0864
ACTGACTA	-0.0565
GTTTAATA	0.315
ACCTCTAT	-0.0571
ACCCGAGA	0.0341
CGGTGAGA	-0.0137
AGACCCGG	0.121
ACTGTGCT	-0.0208
CAATACAC	0.117
ATGTCCCG	0.474
GGGCCTAC	-0.328
CACTGGCG	-0.12
CCTACAAA	0.0183
GCACCACC	-0.273
GCCGTAGC	-0.0663
CGTCAGAG	-0.0113
GACGACAA	0.299

Sequence	PBM E-score
AAACGCTA	0.0634
GTGTTACA	0.0825
AGGCGATA	-0.0729
TCACGGAA	0.158
AGCCGCCA	-0.256
CGGGCTCA	-0.289
AAGCATCC	-0.11
CTATTAAG	-0.0541
CTGACAGA	0.104
CGGAGACC	-0.0836
ATTGGAAA	-0.0653
AGTAAAAT	0.131
TATCAATA	0.0939
AACCACAC	-0.00231
CAATGCAA	0.0404
GTACCTTA	0.191
GCCTAACA	0.0762
CCCACTAG	-0.21
GTGAGCTA	-0.182
AAAACGTC	0.271
CACATCGC	-0.14
TATGTACA	0.283
GTCAAAAC	0.12
GATAGTAA	0.089
AGGCCCGC	-0.123

Sequence	PBM E-score
AAAGCCAC	-0.121
CATGAGAC	0.0547
CTCTGAAG	-0.188
CAAGACCG	0.0431
ACTGCCTC	-0.187
TGGCCTAA	-0.0464
AACCGTCT	-0.235
ATCATCCA	-0.126
TGCATCAA	-0.0575
GGCGCATA	-0.0582
ATATAAAG	0.175
CTGGAGAC	-0.112
TGACTGCA	-0.212
AAAGGACG	0.032
AAAAATTG	0.0171
CGACATAG	0.15
TGGCATAA	0.11
GGGGCGAC	-0.156
TCCTGCAA	-0.0304
CGTACGCA	-0.0839
CGTTCTTA	0.0784
CAATGCCA	-0.0168
ACATCGCC	-0.0222
AACCATTC	-0.0452
TAGAAGAA	0.0391

Sequence	PBM E-score
CGCCATAC	-0.0843
CCGAAGTA	0.0599
AGTTTTAT	0.106
CAAATAAC	0.244
AATCAACT	0.139
GATCGCGA	0.14
TGACGAAA	0.0272
CTGTACAA	0.161
TACGGAGA	-0.0508
CCGGTAAG	0.0811
TAACGCGA	0.00871
GCGCTCTA	-0.127
ATGGGGAG	-0.185
GGTTTCGA	0.112
TATCTAAA	0.167
AAAAAGCC	0.0424
AGATTGTA	0.091
ATCTGTAG	-0.185
TACACGGA	0.303
